About 2,200 (0.71%) of roughly 310,000 compounds showed an effect of 50% or more. Effects have a minus sign here. The list shows a part of the results.

The target in this experiment is human ether-à-go-go-related gene (hERG) potassium channel (human, UniProt Q12809). Briefly: primary screen, population patch clamp on CHO cells stably expressing hERG.
Sequence of human ether-à-go-go-related gene (hERG) potassium channel (Q12809 whole entry, looked up): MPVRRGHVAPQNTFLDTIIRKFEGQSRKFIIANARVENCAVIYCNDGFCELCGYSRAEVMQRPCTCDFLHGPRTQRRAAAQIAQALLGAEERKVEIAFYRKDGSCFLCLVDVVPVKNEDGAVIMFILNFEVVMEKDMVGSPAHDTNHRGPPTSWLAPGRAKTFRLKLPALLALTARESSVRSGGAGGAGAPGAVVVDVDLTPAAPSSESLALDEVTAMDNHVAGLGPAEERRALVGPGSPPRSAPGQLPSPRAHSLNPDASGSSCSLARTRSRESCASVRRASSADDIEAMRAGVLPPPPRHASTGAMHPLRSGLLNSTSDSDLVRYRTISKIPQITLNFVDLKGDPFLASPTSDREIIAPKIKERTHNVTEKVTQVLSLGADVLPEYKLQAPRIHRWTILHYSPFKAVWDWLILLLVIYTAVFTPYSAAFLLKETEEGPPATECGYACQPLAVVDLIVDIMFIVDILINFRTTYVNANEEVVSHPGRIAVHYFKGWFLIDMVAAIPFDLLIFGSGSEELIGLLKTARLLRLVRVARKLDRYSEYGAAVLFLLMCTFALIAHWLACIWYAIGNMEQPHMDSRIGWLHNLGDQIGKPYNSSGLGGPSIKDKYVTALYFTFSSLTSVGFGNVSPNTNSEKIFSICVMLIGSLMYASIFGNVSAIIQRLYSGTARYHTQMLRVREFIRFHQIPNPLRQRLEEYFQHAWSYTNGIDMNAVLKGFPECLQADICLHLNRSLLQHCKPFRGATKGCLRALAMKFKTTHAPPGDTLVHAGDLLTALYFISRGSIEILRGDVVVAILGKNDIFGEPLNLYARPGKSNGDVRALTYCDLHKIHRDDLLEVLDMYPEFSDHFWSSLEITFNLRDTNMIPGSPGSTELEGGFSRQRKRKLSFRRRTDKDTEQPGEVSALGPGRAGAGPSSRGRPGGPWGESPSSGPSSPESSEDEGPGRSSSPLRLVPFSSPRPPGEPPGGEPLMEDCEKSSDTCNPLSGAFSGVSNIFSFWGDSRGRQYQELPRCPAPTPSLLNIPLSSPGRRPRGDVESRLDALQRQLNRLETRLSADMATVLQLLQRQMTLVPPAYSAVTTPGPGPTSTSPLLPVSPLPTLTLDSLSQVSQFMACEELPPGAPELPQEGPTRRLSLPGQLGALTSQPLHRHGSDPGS
For the compound `FC(F)(F)c1ccc(Cl)c(-n2c(-c3cc(-c4ccco4)[nH]n3)n[nH]c2=S)c1`, the “hERG current change (%, negative = inhibition) at 1uM” value is on record as 14.3%.
Regarding `Cc1ccc2nc(SCC(=O)c3ccc4c(c3)NC(=O)CO4)[nH]c2c1`, the “hERG current change (%, negative = inhibition) at 1uM” value is 7.24%.
Then `CC(=O)N1CCc2cc(S(=O)(=O)NCC(=O)NCc3ccc(F)cc3)ccc21`, with 14.5%; and `Cc1cccc(N2CC(C(=O)Nc3nnc(SCc4ccccn4)s3)CC2=O)c1` (centres unmarked), with 9.91%; and `N=c1c(C(=O)NCC2CCCO2)cc2c(=O)n3ccccc3nc2n1Cc1ccc(F)cc1` (centres unmarked), with -82.7%.
Then `O=C(CSc1nc2ccccc2s1)N1c2ccccc2Sc2ccc(Cl)cc21`, with 11.7%.
Then `CCOC(=O)N1CCC(NC(=O)c2cnn3c(C(F)(F)F)cc(-c4cccc(OC)c4)nc23)CC1`, with -12.5%; and `C=CCNc1nc(C)nc(OC)n1`, with 10.2%.
As to `O=C(N/N=C\c1cc([N+](=O)[O-])ccc1N1CCOCC1)c1ccccn1`, the “hERG current change (%, negative = inhibition) at 1uM” value stood at 5.53%.
For the compound `c1cn2cc(-c3ccc4c(c3)OCO4)nc2s1`, the “hERG current change (%, negative = inhibition) at 1uM” value was determined as 8.59%.
Then `c1ccc(Cn2ccnc2-c2ccco2)cc1`, with 0.833%; and `Cc1cc(NC(=O)NN2CCOCC2)nn1-c1c(Cl)cc(Cl)cc1Cl`, with 13.1%.
Then `Cl.OC(CN1CCOCC1)c1csc2ccccc12` (centres unmarked), with 15.3%; and `CCN(CC)S(=O)(=O)c1ccc(NC(=O)CC(NC(C)=O)c2ccccc2)cc1` (centres unmarked), with 9.93%.
For `CCN(CC)c1ccc(NC(=O)c2cncc(Br)c2)cc1`, the “hERG current change (%, negative = inhibition) at 1uM” value is 5.66%.
Then `COc1ccc(CNC(=O)CCN2C(=O)c3ccccc3C2=O)cc1`, with 6.96%; and `O=C(CNS(=O)(=O)c1cccc2nonc12)NCc1ccc(F)cc1`, with 2.79%; and `COc1ccccc1N(CC(=O)Nc1ccc(C(F)(F)F)cc1)S(C)(=O)=O`, with 13.7%.
Then `COc1ccc(-c2c(NCCc3ccccc3)c(=O)c2=O)cc1`, with 11.5%; and `Cc1ccc(N(C(=O)Cn2nnc(-c3ccc(C)o3)n2)C(C(=O)NC2CCCC2)c2ccncc2)cc1` (centres unmarked), with 3.36%; and `O=C(c1ccc(Cl)c([N+](=O)[O-])c1)N(Cc1ccco1)C1CCS(=O)(=O)C1` (centres unmarked), with 3.95%.
For `COCCNC(=O)c1ccccc1NS(=O)(=O)c1ccc(C)c([N+](=O)[O-])c1`, the “hERG current change (%, negative = inhibition) at 1uM” value is 19.6%.
Then `CS(=O)(=O)N1CCN=C1SCc1ccc(Br)cc1`, with 11.9%; and `COC(=O)C1=C(c2ccc(-c3ccccc3)c(F)c2)C[C@@H]2CC[C@H]1N2C(=O)N1CCOCC1`, with 6.38%.
Then `CC(C)n1ncc2c(C(=O)N3CCN(c4ccc(F)cc4)CC3)cc(-c3ccccc3)nc21`, with 2.72%; and `O=C(Nc1nccs1)c1cccc(S(=O)(=O)N2CCCCC2)c1`, with 5.95%; and `COc1ccc(NC(=O)n2nc(OC(=O)c3cccs3)cc2N)cc1`, with 13.5%.
Then `Cc1onc(-c2ccccc2)c1C(=O)Nc1sc2c(c1C(N)=O)CCC2`, with 16.5%; and `COc1ccc(NC(=O)c2oc3ccccc3c2NC(=O)C2CCCO2)cc1OC` (centres unmarked), with -7.45%; and `COc1cc2nc(Nc3ccc(C)c(Cl)c3)nc(N)c2cc1OC.Cl`, with 11.7%.
Consider `Cc1sc2c(c1C)C(c1ccc(C(C)(C)C)cc1)=NCC(=O)N2CC(=O)Nc1nccs1`, for which the “hERG current change (%, negative = inhibition) at 1uM” value is on record as -6.63%.
Then `N#C/C=C(/N)c1ccc(Br)cc1`, with 2.55%.
Then `COc1ccccc1NC(=O)CN1CCN(CC(=O)Nc2ccc(S(N)(=O)=O)cc2)CC1`, with 12.1%; and `CNC(=S)NNc1ccccc1[N+](=O)[O-]`, with 15.1%; and `CC(C)C(=O)Nc1nnc(S(=O)(=O)N2CCc3ccccc32)s1`, with 0.94%.
Then `Cc1c2c(nc3ccccc13)CCC(C(C)(C)C)C2.Cl` (centres unmarked), with 6.34%.
Consider `O=C(c1ccc(Cl)c(S(=O)(=O)N2CCCC2)c1)N1CCN(c2ncccn2)CC1`, for which the “hERG current change (%, negative = inhibition) at 1uM” value amounted to 9.96%.
Then `Clc1nn2cnnc2c2ccccc12`, with 4.75%; and `Cc1[nH]n(-c2ccccc2)c(=O)c1N=Nc1nccs1`, with 6.03%; and `COc1ccc2cc(C(=O)Nc3ccccc3)sc(=O)c2c1OC`, with 13.7%.
In the case of `COc1cccc(NC(=O)CCC2CCN(Cc3nccs3)CC2)c1`, the “hERG current change (%, negative = inhibition) at 1uM” value came out at 9.32%.
Then `COc1ccc(Cn2cc3c(-c4ccc(F)cc4)nnc-3c3cc(OC)c(OC)cc32)cc1`, with -75.6%.
Then `CCCCCc1nnc(NC(=O)C(=O)OCC)s1`, with 1.01%; and `CC(=O)c1cn(CCOc2ccccc2C)c2ccccc12`, with 26.4%.

Source of the values: publication PMC4336329 (PLoS ONE, 2015).
